Test results reported in the supplement of paper PMC4967469.
The IC50 comes from the fitted curve, where viability falls to half of the control; fits outside the tested doses are given as limits. For AUC the same curve is integrated over the 256-fold range of doses and scaled to a fraction; values near 1 show little effect. For some assays here: Where the top dose is marked as inferred, it comes from the curve model; the source does not state it. For some assays here: Where an entry number is given, a second screen of the drug exists; the two often differ.

Columns and labels:
Assay in all cases: Viability of human cancer cell lines after 72 h of drug (GDSC screen)
Thapsigargin = compound: C/C=C(/C)C(=O)O[C@H]1C(C)=C2[C@H]([C@@H]1OC(=O)CCCCCCC)[C@@](C)(OC(C)=O)C[C@H](OC(=O)CCC)[C@@]1(O)[C@H]2OC(=O)[C@@]1(C)O [Thapsigargin]; conditions: top dose 0.512 µM; top dose inferred
Procedure: (§1)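 Human cancer cell lines in 384-well plates, medium with 10% serum, drug for 72 h over a 256-fold dose range (nine 2-fold or five 4-fold steps up to the top dose). Adherent lines were fixed and stained with the nucleic acid dye Syto60, suspension lines read with resazurin; signal relative to control wells, capped at 0 and 100%. One two-parameter sigmoid per drug and line, fitted in a mixed model over all curves with the slope shared within a line.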

QL-X-138 = compound: C=CC(=O)Nc1cc(-n2c(=O)ccc3cnc4ccc(-c5cn[nH]c5)cc4c32)ccc1C [QL-X-138]; conditions: top dose 10.24 µM; top dose inferred
Procedure: as §1

GSK269962A = compound: CCn1c(-c2nonc2N)nc2cnc(Oc3cccc(NC(=O)c4ccc(OCCN5CCOCC5)cc4)c3)cc21 [GSK269962A]; conditions: top dose 5 µM; screen: GDSC drug entry 1192; top dose inferred
Procedure: as §1

MPS-1-IN-1 = compound: COc1cc(N2CCC(O)CC2)ccc1Nc1cc(Nc2ccccc2S(=O)(=O)C(C)C)c2cc[nH]c2n1 [MPS-1-IN-1]; conditions: top dose 20 µM; top dose inferred
Procedure: as §1

(5Z)-7-Oxozeaenol = compound: COc1cc(O)c2c(c1)/C=C/C[C@H](O)[C@H](O)C(=O)/C=C\C[C@H](C)OC2=O [(5Z)-7-Oxozeaenol]; conditions: top dose 10 µM; top dose inferred
Procedure: as §1

CP466722 = compound: COc1cc2ncnc(-n3nc(-c4ccccn4)nc3N)c2cc1OC [CP466722]; conditions: top dose 16 µM; top dose inferred
Procedure: as §1

Zibotentan = compound: COc1nc(C)cnc1NS(=O)(=O)c1cccnc1-c1ccc(-c2nnco2)cc1 [Zibotentan]; conditions: top dose 20 µM; top dose inferred
Procedure: as §1

ABT-888 = compound: C[C@]1(c2nc3c(C(N)=O)cccc3[nH]2)CCCN1 [ABT-888]; conditions: top dose 5 µM; top dose inferred
Procedure: as §1

ABT-869 = compound: Cc1ccc(F)c(NC(=O)Nc2ccc(-c3cccc4[nH]nc(N)c34)cc2)c1 [ABT-869]; conditions: top dose 1.024 µM; top dose inferred
Procedure: as §1

CHIR-99021 = compound: Cc1cnc(-c2cnc(NCCNc3ccc(C#N)cn3)nc2-c2ccc(Cl)cc2Cl)[nH]1 [CHIR-99021]
Procedure: as §1

Cytarabine = compound: Nc1ccn([C@@H]2O[C@H](CO)[C@@H](O)[C@@H]2O)c(=O)n1 [Cytarabine]; conditions: top dose 2 µM
Procedure: as §1

KU-55933 = compound: O=c1cc(-c2cccc3c2Sc2ccccc2S3)oc(N2CCOCC2)c1 [KU-55933]; conditions: top dose 10 µM
Procedure: as §1

[1] = top dose 2.56 µM, screen: GDSC drug entry 154
[2] = top dose 10 µM, screen: GDSC drug entry 1241, top dose inferred

Cell Line | AUC (Thapsigargin) | IC50 (Thapsigargin) [µM] | AUC (QL-X-138) | IC50 (QL-X-138) [µM] | AUC (GSK269962A) | IC50 (GSK269962A) [µM] | AUC (MPS-1-IN-1) | IC50 (MPS-1-IN-1) [µM] | AUC ((5Z)-7-Oxozeaenol) | IC50 ((5Z)-7-Oxozeaenol) [µM] | AUC (CP466722) | IC50 (CP466722) [µM] | AUC (Zibotentan) | IC50 (Zibotentan) [µM] | AUC (ABT-888) | IC50 (ABT-888) [µM] | AUC (ABT-869) | IC50 (ABT-869) [µM] | AUC (CHIR-99021; [1]) | IC50 (CHIR-99021; [1]) [µM] | AUC (CHIR-99021; [2]) | IC50 (CHIR-99021; [2]) [µM] | AUC (Cytarabine) | IC50 (Cytarabine) [µM] | AUC (KU-55933) | IC50 (KU-55933) [µM]
CAL-78 (chondrosarcoma, adherent) | 0.976 | > 0.512 | 0.981 | > 10.2 | 0.9 | > 5 | 0.897 | > 20 | 0.769 | 4.3 | 0.986 | > 16 | 0.983 | > 20 | 0.986 | > 5 | 0.984 | > 1.02 | 0.915 | > 2.56 | 0.95 | > 10 | 0.734 | 0.651 | 0.982 | > 10
CAL-85-1 (breast, adherent) | 0.332 | 0.00946 | 0.64 | 1.75 | 0.979 | > 5 | 0.834 | 18.6 | 0.666 | 2.08 | 0.76 | 7.13 | 0.976 | > 20 | 0.976 | > 5 | 0.966 | > 1.02 | 0.873 | > 2.56 | 0.951 | > 10 | 0.853 | > 2 | 0.964 | > 10
CAL-120 (breast, adherent) | 0.511 | 0.0346 | 0.59 | 1.21 | 0.677 | 1.14 | 0.934 | > 20 | 0.574 | 1.06 | 0.791 | 9.62 | 0.975 | > 20 | 0.981 | > 5 | 0.98 | > 1.02 | 0.971 | > 2.56 | 0.936 | > 10 | 0.808 | 1.42 | 0.962 | > 10
CCF-STTG1 (glioma, adherent) | 0.435 | 0.0213 | 0.731 | 2.92 | 0.874 | 4.93 | 0.96 | > 20 | 0.874 | 9.88 | 0.987 | > 16 | 0.984 | > 20 | 0.988 | > 5 | 0.93 | > 1.02 | 0.986 | > 2.56 | 0.977 | > 10 | 0.795 | 0.936 | 0.984 | > 10
CCK-81 (large intestine, adherent) | 0.854 | 0.366 | 0.899 | > 10.2 | 0.989 | > 5 | 0.921 | > 20 | 0.918 | > 10 | 0.774 | 5.88 | 0.988 | > 20 | 0.99 | > 5 | 0.989 | > 1.02 | 0.979 | > 2.56 | 0.973 | > 10 | 0.955 | > 2 | 0.986 | > 10
CHL-1 (melanoma, adherent) | 0.252 | 0.00653 | 0.501 | 0.645 | 0.772 | 1.82 | 0.913 | > 20 | 0.421 | 0.386 | 0.784 | 6.37 | 0.987 | > 20 | 0.968 | > 5 | 0.984 | > 1.02 | 0.985 | > 2.56 | 0.986 | > 10 | 0.798 | 0.888 | 0.856 | 7.31
CHP-212 (neuroblastoma, adherent) | 0.231 | 0.00571 | 0.871 | 8.38 | 0.789 | 2.02 | 0.988 | > 20 | 0.228 | 0.11 | 0.672 | 2.89 | 0.979 | > 20 | 0.943 | > 5 | 0.976 | > 1.02 | 0.988 | > 2.56 | 0.84 | 6.15 | 0.262 | 0.0279 | 0.905 | > 10
CHSA0011 (chondrosarcoma, adherent) | 0.884 | > 0.512 | 0.79 | 6.73 | 0.801 | 3.7 | 0.979 | > 20 | 0.579 | 1.12 | 0.89 | > 16 | 0.96 | > 20 | 0.98 | > 5 | 0.939 | > 1.02 | 0.943 | > 2.56 | 0.894 | > 10 | 0.846 | > 2 | 0.979 | > 10
CHSA0108 (chondrosarcoma, adherent) | 0.639 | 0.0825 | 0.924 | > 10.2 | 0.71 | 1.36 | 0.943 | > 20 | 0.444 | 0.43 | 0.884 | > 16 | 0.978 | > 20 | 0.978 | > 5 | 0.982 | > 1.02 | 0.927 | > 2.56 | 0.944 | > 10 | 0.712 | 0.551 | 0.949 | > 10
CHSA8926 (chondrosarcoma, adherent) | 0.941 | > 0.512 | 0.913 | > 10.2 | 0.8 | 3.69 | 0.98 | > 20 | 0.702 | 2.97 | 0.862 | > 16 | 0.958 | > 20 | 0.98 | > 5 | 0.959 | > 1.02 | 0.976 | > 2.56 | 0.744 | 4.3 | 0.908 | > 2 | 0.972 | > 10
